# Test results published in PubChem BioAssay AID540317 (National Center for Advancing Translational Sciences (NCATS), 2011).
# The campaign covered roughly 390,000 compounds. About 2,200 (0.56%) were called active. Inconclusive means that the source gave no clear call. Such entries were picked first, then a sample of the others. Calls come from the whole dose curve; as a rule, active = well fitted inhibition curve with a large enough effect; inconclusive = small, poorly fitted or top-dose-only effect; inactive = no such curve, though single readings can be large or run the other way. A potency beside an inconclusive call is a rough fit, not a confirmed value.
# Molecular target: Chromobox protein homolog 1 (Homo sapiens) (UniProt P83916)
# Chain of UniProt P83916 (P83916 whole entry, looked up): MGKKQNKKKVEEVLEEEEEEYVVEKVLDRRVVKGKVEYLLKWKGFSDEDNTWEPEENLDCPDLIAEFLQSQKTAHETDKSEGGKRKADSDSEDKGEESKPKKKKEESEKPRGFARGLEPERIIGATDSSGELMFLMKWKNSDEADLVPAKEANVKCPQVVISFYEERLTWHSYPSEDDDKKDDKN
# Test: HTS for Inhibitors of HP1-beta Chromodomain Interactions with Methylated Histone Tails; note: nearly all actives have a fitted effect of over 70% in size
# Conditions: AlphaScreen HP1-beta / biotin-H3K9me3 peptide binding; series mostly up to 114 µM
# Method in brief: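 Compound inhibition of the preformed complex between 50 nM HP1-beta and 50 nM biotinylated H3K9me3 peptide was read by AlphaScreen. Buffer was PBS pH 7.4 with 0.01% Tween-20. Incubations ran 30 min at room temperature, with 10 ug/mL donor/acceptor beads.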
# Potency is the fitted concentration of half-maximal effect; tags give direction and shape of the fitted curve.
row,SMILES,Potency
1,CCCCS/C(=C(/C#N)C(N)=O)c1cc2c([nH]1)CCCC2,"inconclusive: 44.7 µM [inhibitor, partial curve, poor fit]"
2,CCCN1CCc2c(sc(NC(=S)NC(=O)c3ccccc3)c2C#N)C1,"inconclusive: 11.2 µM [inhibitor, full curve]"
3,Cc1nn(CC(O)CN2c3ccccc3Sc3ccccc32)c(C)c1Br (stereo not given),"inconclusive: 28.2 µM [inhibitor, full curve]"
4,CCOc1ccc(/C=C2\SC(=S)N(CCCC(=O)NCCCN3CCOCC3)C2=O)cc1,"inconclusive: 15.8 µM [inhibitor, full curve]"
5,Cc1cnc(C=NNC(N)=S)c2cccc(N)c12,"inconclusive: 14.1 µM [inhibitor, partial curve, poor fit]"
6,Cc1cc(C(=O)OCC(=O)NCc2ccco2)c(C)o1,"inconclusive: 79.4 µM [inhibitor, partial curve, poor fit]"
7,COc1ccccc1C(=O)N1CCC(N2CCN(c3ccccc3OC)CC2)CC1,"inconclusive: 50.1 µM [inhibitor, partial curve, poor fit]"
8,CCN(CC)C(=O)CSc1nnc(-c2ccccn2)n1-c1ccc(C)c(C)c1,inactive
9,CCCCN(C)C(=O)c1ccc2c(c1)NC(=O)C(CC(C)C)N2 (stereo not given),inactive
10,OCc1ccccc1CN1CCCCCC1,inactive
11,CSc1ccccc1NC(=O)c1ccc([N+](=O)[O-])cc1,"inconclusive: 79.4 µM [inhibitor, single point]"
12,Cc1ccc(N/C=C(\C2OC(=O)c3ccccc32)[N+](=O)[O-])c(C)c1 (stereo not given),"inconclusive: 25.1 µM [inhibitor, full curve, poor fit]"
13,CCOC(=O)c1sc(NC(=O)c2cc(-c3ccc(C)cc3)nc3ccccc23)c(C#N)c1C,"inconclusive: 11.2 µM [inhibitor, single point]"
14,Cc1ccc(C)n1-c1ccc(C(=O)N/N=C/c2ccncc2)cc1,"inconclusive: 89.1 µM [inhibitor, single point]"
15,CCn1c2ccccc2c2cc(CNCc3ccc(OC)cc3OC)ccc21,"inconclusive: 12.6 µM [inhibitor, partial curve]"
16,Cc1ccc(S(=O)(=O)c2nc(-c3ccccc3)oc2N2CCCCCC2)cc1,"inconclusive: 35.5 µM [inhibitor, partial curve]"
17,O=C1COc2ccc(C(=O)CSc3nnc(-c4cccs4)n3Cc3ccccc3)cc2N1,inactive
18,COc1ccc(CC(=O)OCC(=O)Nc2ccc(Cl)cc2C)cc1,inactive
19,N#Cc1ccc(C=NN2CCCCCC2)cc1,"inconclusive: 50.1 µM [inhibitor, partial curve, poor fit]"
20,c1ccc2c(OCCCN3CCCCCC3)cccc2c1,"inconclusive: 35.5 µM [inhibitor, partial curve]"
21,O=C(CNCCc1ccccc1)Nc1ccc(C(=O)N2CCCCC2)cc1,"inconclusive: 56.2 µM [inhibitor, single point]"
22,COc1ccc2[nH]c3c(=S)nc[nH]c3c2c1,inactive
23,COc1ccc(N2CCC(CNC(=O)Nc3ccc(Cl)cc3)C2)cc1 (stereo not given),"inconclusive: 10 µM [inhibitor, partial curve, poor fit]"
24,CN(C)c1ccc(C(c2ccc(N(C)C)cc2)C(O)c2ccccc2)cc1 (stereo not given),"inconclusive: 14.1 µM [inhibitor, full curve, poor fit]"

row,SMILES,Potency
1,Cn1cnnc1SCC(=O)c1ccc(OC(F)F)cc1,inactive
2,O=C(CC1S/C(=N/N=C/C=C/c2ccccc2)NC1=O)Nc1ccc(C(=O)O)cc1 (stereo not given),inactive
3,Cc1ccc(CN2CCN(Cc3ccc(-n4cccn4)cc3)CC2CCO)cc1 (stereo not given),"inconclusive: 89.1 µM [inhibitor, partial curve, poor fit]"
4,CC(C)NC(=O)NC(=O)COC(=O)c1ccc(OC(F)(F)F)cc1,"inconclusive: 31.6 µM [inhibitor, partial curve, poor fit]"
5,COc1ccc(N2CCN(S(=O)(=O)c3c(C)[nH]c(C)c3C(=O)N3CCCCC3)CC2)cc1,inactive
6,CCn1cc(/C=C/C(=O)NCc2c(C)nn(C)c2C)cn1,"inconclusive: 89.1 µM [inhibitor, single point]"
7,Cc1cc(C)c2c(=O)n(CC(=O)Nc3ccc(Br)c(C)c3)sc2n1,"inconclusive: 7.94 µM [inhibitor, full curve, poor fit]"
8,Cc1ccc(-n2c(C)cc(C(=O)COc3cccnc3[N+](=O)[O-])c2C)cc1,"inconclusive: 44.7 µM [inhibitor, partial curve]"
9,S=C(NCCCN1CCOCC1)NCCCN1CCOCC1,"inconclusive: 31.6 µM [inhibitor, single point]"
10,O=C(Nc1ccc(N2CCCCCC2)cc1)c1ccccc1Cl,active: 35.5 µM
11,COc1ccccc1CN1CCN(C(=O)c2ccncc2)CC1,"inconclusive: 12.6 µM [inhibitor, full curve]"
12,COc1ccc(C2C(C#N)=C3NC(=O)c4c(sc5c4CCCCC5)N3C3=C2C(=O)CC(C)(C)C3)cc1 (stereo not given),"inconclusive: 35.5 µM [inhibitor, partial curve]"
13,NC(=S)N=Nc1c(O)cc(O)c2[nH]c(=O)ccc12,active: 17.8 µM
14,CCCCN(CC)CCCn1cnc2c([nH]c3ccc(Cl)cc32)c1=O,inactive
15,O=C(c1ccco1)[C@@H]1[C@@H]2C(=O)N(c3ccccc3)C(=O)[C@@H]2C2c3ccccc3C=CN21 (stereo not given in full),inactive
16,O=C(NCc1ccccc1)c1ccc(F)c(S(=O)(=O)N2CCOCC2)c1,"inconclusive: 39.8 µM [inhibitor, single point]"
17,COCCNC(=O)c1cc2cc(Cl)cc(Cl)c2oc1=O,"inconclusive: 20 µM [inhibitor, full curve]"
18,COCCN=c1scc(-c2cccs2)n1/N=C/c1ccc(O)c(O)c1O,"inconclusive: 5.62 µM [inhibitor, full curve]"
19,CN1/C(=C\C=C2/SC(=S)N(CC(=O)O)C2=O)C(C)(C)c2ccccc21,active: 35.5 µM
20,CCC(C)NC(=S)N1CCN(C)CC1 (stereo not given),"inconclusive: 15.8 µM [inhibitor, full curve]"
21,Cc1ccccc1N=C1NC(=O)/C(=C/c2cccn2C)S1,"inconclusive: 31.6 µM [inhibitor, single point]"
22,COc1ccc(S(=O)(=O)N(C)C2CCS(=O)(=O)C2)cc1OC (stereo not given),inactive
23,COc1cccc(C(=O)NC(c2ccc(Cl)cc2)c2cc(Cl)c3cccnc3c2O)c1 (stereo not given),inactive
24,COc1ccc(N2CCN(c3oc(COc4ccc(Cl)cc4)nc3C#N)CC2)cc1,"inconclusive: 14.1 µM [inhibitor, partial curve, poor fit]"

row,SMILES,Potency
1,CC1CCCCN1S(=O)(=O)Cc1ccccc1Cl (stereo not given),inactive
2,O=C(NCc1cccs1)C(=O)NCC1OCCCN1S(=O)(=O)c1ccccc1 (stereo not given),"inconclusive: 28.2 µM [inhibitor, single point]"
3,CCOc1ccc(N=C2NN=C(c3cc(C)n(CC4CCCO4)c3C)CS2)cc1 (stereo not given),"inconclusive: 17.8 µM [inhibitor, partial curve]"
4,N#CC1=C(S)N(c2ccccc2)C(c2ccc(-c3ccccc3Cl)o2)NC1=O (stereo not given),"inconclusive: 50.1 µM [inhibitor, single point]"
5,CSc1ccc(CN(C)CCc2ccccn2)cc1,"inconclusive: 15.8 µM [inhibitor, partial curve, poor fit]"
6,CCCCC(=O)Nc1sc(C(=O)N(CC)CC)c(C)c1C(=O)OC,"inconclusive: 3.55 µM [inhibitor, full curve]"
7,COC(=O)c1ccsc1NS(=O)(=O)c1ccccc1,inactive
8,Oc1ccccc1N1CCN(C(=S)NCCc2ccccc2)CC1,"inconclusive: 39.8 µM [inhibitor, single point]"
9,Cc1[nH]c2ccccc2c1/C=N/NC(=O)c1cccs1,inactive
10,CCC(=Cc1ccccc1OC)c1ccncc1,inactive
11,CN1C(=O)/C(=C/c2cc(N=Nc3ccccc3)ccc2O)SC1=S,"inconclusive: 8.91 µM [inhibitor, partial curve, poor fit]"
12,c1ccc(C2Nc3cccc4cccc(c34)N2)cc1,"inconclusive: 31.6 µM [inhibitor, partial curve]"
13,COc1ccc(NC2=C(c3ccc(OC)cc3)C(=O)c3ccccc32)cc1,inactive
14,CCOC(=O)N1CCc2c(sc(NCc3cccs3)c2C(=O)Nc2cc(OC)ccc2OC)C1,"inconclusive: 20 µM [inhibitor, full curve]"
15,CCOc1cc(N2CCOCC2)c(OCC)cc1NC(=O)c1ccc2ccccc2n1,"inconclusive: 22.4 µM [inhibitor, full curve]"
16,Cc1cc(C)c(Nc2cc(S(=O)(=O)O)c(N)c3c2C(=O)c2ccccc2C3=O)c(C)c1,"inconclusive: 11.2 µM [inhibitor, partial curve, poor fit]"
17,COc1ccc(C(=O)COc2ccccc2C(=O)Nc2ccccc2)cc1,inactive
18,O=S(=O)(NCC(c1ccco1)N1CCc2ccccc21)c1ccccc1 (stereo not given),"inconclusive: 70.8 µM [inhibitor, partial curve]"
19,CCN(CC)c1ccc(NC(=O)c2ccc3c(c2)c(C)c(C)n3C)cc1,active: 35.5 µM
20,CCN1CCN(Cc2ccc(NC(=O)c3cc(NC(=O)C(=O)c4c[nH]c5ccccc45)cc(OC)c3)cc2C(F)(F)F)CC1,"inconclusive: 31.6 µM [inhibitor, partial curve]"
21,CCOC(=O)c1cc2c(ccn2C)n1Cc1cc(C)ccc1C,"inconclusive: 50.1 µM [inhibitor, partial curve, poor fit]"
22,C1=CCC(CN2CCN(C3CCCCCC3)CC2)CC1 (stereo not given),"inconclusive: 14.1 µM [inhibitor, full curve]"
